These results are taken from the supplement of paper PMC11417369.

± gives the standard deviation of the averaged measurements. The list shows a part of the results.

This assay has as its system PfAP2-I AP2 domain 3 (GST-tagged). Briefly: gcPBM binding intensity (ln(normalized median fluorescence intensity)); higher = stronger DNA binding. The method in brief: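 Each value is the highest Masliner-normalised natural-log median intensity across replicate spots of either orientation of a probe. The probes were primer-extended double-stranded 36-bp intergenic genomic sequences on an Agilent 4 × 180k array, alongside negative controls, exposed for 1 h to GST-tagged P. falciparum DNA-binding domains expressed in E. coli. Bound protein was picked up with Alexa488 anti-GST antibody and scanned at 488 nm.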
Turning to “TTTTAAAATAAAAAAATAAAAAAAGGGGAAAAAAAA [CACACA_negctrl_site847]”, the “gcPBM binding intensity (ln)” value worked out at 7.92 ± 0.25.

Take “CATATCAAAAAAAAATGTACACGTATATACAATACA [XGTACX_site2660]”: the “gcPBM binding intensity (ln)” value is 7.77 ± 0.24.

For the sequence “TATAATATGTTTGATGGTACACGTAAACACCTTGCA [XGTACX_site1643]”, the “gcPBM binding intensity (ln)” value is 7.79 ± 0.58. Under “ATATACTTATATATTGCACACATCTAATATTTTGAA [CACACA_site3165]” stands 10.5 ± 0.57; under “ATAACTAAATTATATTGTACAAAATAATTATATATT [XGTACX_site1188]”, 7.74 ± 0.53.

As to “AGACAATTTTTTAGTACACACATATAGATATATAAA [CACACA_site6832]”, the “gcPBM binding intensity (ln)” value is 8.24 ± 0.23.

As for “ATAATTATACAAAAGCGTACACGATATAAATCTACG [XGTACX_site8115]”, the “gcPBM binding intensity (ln)” value amounted to 7.92 ± 0.28. Then “CTTAAATCCATAATATGTACTTAAAAAGAAAAAATA [XGTACX_site4765]”, with 7.47 ± 0.51; and “GTATTATAAAAAGGAAGTACATATATACATATTATA [XGTACX_site1271]”, with 7.69 ± 0.47; and “ATATGAACATTAAAAAAGTAAGGTATTCTCCCCTCT [CACACA_negctrl_site1299]”, with 7.71 ± 0.54. Then “TTATAAAAAAAAAAAAAAAAAAAAACCAATATAATA [CACACA_negctrl_site968]”, with 7.3 ± 0.48; and “TTTATTCTAAAATATTAAAAATGATTTGTTTTTTCA [CACACA_negctrl_site1751]”, with 7.04 ± 0.42; and “TAATATTACATTTATTGTACTTTGTTTTTATTTTAT [XGTACX_site1605]”, with 7.83 ± 0.36. Under “AATTATACTCACGTTACACACACACTAGATATATAT [CACACA_site6133]” stands 8.32 ± 0.69; under “TTTTTTTTTTTTTTTTGTACATATATATAAAAAATA [XGTACX_site2772]”, 8.07 ± 0.67; under “CCCACAATGGTTTATATACACACTGTTGCAAATTCT [CACACA_site3066]”, 7.92 ± 0.61. In the case of “ATTGAAAAAATACAATGTACATAGTAATACAAAGAA [XGTACX_site4142]”, the “gcPBM binding intensity (ln)” value was determined as 8.18 ± 0.62. Under “TAATACTTAATGAACACATGCACATATACATAGTAT [TGCATGCA_site496]” stands 7.88 ± 0.61. Then “TGTTTCTAAGAATTTACACACAAAATATTTCTACAT [CACACA_site7846]”, with 7.7 ± 0.57.

As to “AAAAAAAAAAATTGCACACAAAAAAAAAAAAAAAAA [CACACA_site2073]”, the “gcPBM binding intensity (ln)” value was determined as 8.9. On to “TTAAAAATTAAAAGTAGTACATATAATATAAACATT [XGTACX_site424]”, for which the “gcPBM binding intensity (ln)” value is 7.8 ± 0.2. Under “ATGTATCGTAACAAATGTACAAGAGGATGTTTAGAC [XGTACX_site3355]” stands 8.22 ± 0.61; under “GATATATTTTGTTATGTAGATGTTGGTAGGAATTTT [GTGCAC_negctrl_site485]”, 7.74 ± 0.57; under “GTATTTATATGATTAACACACATATGTGGATTAATA [CACACA_site1315]”, 7.86 ± 0.45. Under “TATTGATAAAAAATATGTACATATATACATATATAT [XGTACX_site3821]” stands 7.78 ± 0.43; under “ATATATATATATATATGTACGTAAACAAAAATTTAT [XGTACX_site6780]”, 9.37 ± 0.47; under “TATATAACTACAAGAACACACATATAAATATAAATA [CACACA_site7210]”, 7.71 ± 0.58. Under “GTAATTAAGATATATACACACAAAGGCTATTAAATA [CACACA_site6604]” stands 7.58 ± 0.57. With “AAAAATAAAATAAAATAAAATAAAAATAAAGAAAAA [CACACA_negctrl_site808]”, the “gcPBM binding intensity (ln)” value stood at 7.69 ± 0.57.

In the case of “ACAAATAAAAAAATTACACACATATATAATATATAT [CACACA_site1361]”, the “gcPBM binding intensity (ln)” value was determined as 7.83 ± 0.64.

As to “AGTAGTCTGGAGAAAAGTACACAGTATCTGGTAACA [XGTACX_site2034]”, the “gcPBM binding intensity (ln)” value worked out at 7.85 ± 0.45.

For “ATTTGACACGTATATGCACACACCCGTAAGTGTCCA [CACACA_site8891]”, the “gcPBM binding intensity (ln)” value stood at 9.67 ± 0.071. Under “TATTAACTCAATAGCGCACACTTTTAATATTTTATA [CACACA_site4973]” stands 10.1 ± 0.35; under “TCATAAAAAGGAATCTTTAAGATATTTTATAAGCTC [XGTACX_negctrl_site18]”, 7.43 ± 0.69.

“TTATAAATTTTTAATAGTACATAAAATTAAAGGTAA [XGTACX_site760]”: the “gcPBM binding intensity (ln)” value stood at 7.84 ± 0.28.

“ATGTGATAATTTAGGAGTACTGTCATAAGCATTTCT [XGTACX_site3091]”: the “gcPBM binding intensity (ln)” value is 7.74 ± 0.59.

As to “AGTGCATAATATTTATGTACGTATCACATATATTTT [XGTACX_site5166]”, the “gcPBM binding intensity (ln)” value was found to be 11.3 ± 0.83. Under “AATAAATGTCTGTTAATGCACACGATATGTCTATAT [CACACA_site2351]” stands 10.8 ± 0.57; under “TTTCTTTATTTATAATAATTTTTTATTAAAAATAGA [CACACA_negctrl_site1610]”, 7.31 ± 0.37; under “TTCATTAAAACGAATACACACATAAATATATAAAAG [CACACA_site4824]”, 7.93 ± 0.33. Then “AAATATATATATATTACACACTATATATTTATTTAT [CACACA_site681]”, with 7.72 ± 0.45.

With “TGTATACCTTAATATACACACATACATATATATATA [CACACA_site8370]”, the “gcPBM binding intensity (ln)” value is 9.27 ± 0.35.

With “GGATATATTATATGTACACACATATATAACGGATAT [CACACA_site1309]”, the “gcPBM binding intensity (ln)” value stood at 8.03 ± 0.52.

Turning to “CAACAAAAGAAACACACACACACAAACACAAAAAAA [CACACA_site3389]”, the “gcPBM binding intensity (ln)” value is 8 ± 0.37.
